From the supplement of paper PMC3334620
Whole data set: some 33,000 sequences, median “E-score (-0.5 to 0.5)” near -0.013, cut for the highest 2% near 0.3. This is one part of the list.

Biological target: T1, Msn1 (UniProt P22148)
T1 sequence: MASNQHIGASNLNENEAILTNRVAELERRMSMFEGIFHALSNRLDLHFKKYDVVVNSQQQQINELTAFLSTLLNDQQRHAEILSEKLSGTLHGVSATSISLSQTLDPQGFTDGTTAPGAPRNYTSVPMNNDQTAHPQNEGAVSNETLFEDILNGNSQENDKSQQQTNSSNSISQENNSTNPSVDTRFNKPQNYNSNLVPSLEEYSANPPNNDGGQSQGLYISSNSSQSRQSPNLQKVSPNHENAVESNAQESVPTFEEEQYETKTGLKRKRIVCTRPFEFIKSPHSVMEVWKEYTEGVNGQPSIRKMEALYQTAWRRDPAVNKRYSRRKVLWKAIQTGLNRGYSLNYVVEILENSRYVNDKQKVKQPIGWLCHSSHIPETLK
Assay: PBM E-score (8-mer binding enrichment) (E-score (-0.5 to 0.5)); higher = stronger / more preferred TF binding; most listed sequences are background and not binding sites
Conditions: protein concentration: 200 nM; construct: GST-full length
Method: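 Universal 'all 10-mer' protein binding microarrays (Agilent AMADID 015681) probed with GST-tagged S. cerevisiae TFs (full-length or DBD) made by in vitro transcription/translation (PURExpress), about 100-200 nM. Bound TF was detected with fluorescent anti-GST. Each ungapped 8-mer (which stands for itself and its reverse complement) is scored by the PBM enrichment score (E-score), a modified Wilcoxon-Mann-Whitney statistic from -0.5 to +0.5, computed with the Universal PBM Analysis Suite. Scale: above 0.35 generally sequence-specific binding.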

Row | Sequence | PBM E-score
1 | CTCAGAGC | -0.244
2 | TGGTAACA | 0.0506
3 | CGCGCCTA | -0.0716
4 | GAGCAGAA | -0.00842
5 | GGATAGGA | 0.0457
6 | ACTTGGAT | 0.138
7 | TGAGTAAA | -0.023
8 | TTAAATAA | 0.0386
9 | ACAAGGCG | 0.159
10 | TCGCGCAA | 0.206
11 | ATCCGTAA | -0.0135
12 | CGTGGAGC | -0.194
13 | CAGGAATG | -0.173
14 | AACACATT | 0.0513
15 | CAACACTA | 0.148
16 | GAAATGGA | -0.0913
17 | ACTATGCT | 0.034
18 | AGTTGTCG | 0.168
19 | AGATGTCG | 0.0151
20 | ACCCGCGA | 0.0658
21 | AACTCGGG | 0.0969
22 | AGGCGGCA | -0.177
23 | CCTAAGAC | -0.0344
24 | GGCAACCC | -0.211
25 | CATGGTCG | 0.119

Row | Sequence | PBM E-score
26 | GGGCGCTA | -0.352
27 | ATCCCAAG | -0.0639
28 | ACCCACAC | -0.23
29 | TGTCTAAA | 0.38
30 | CGTCCAAG | -0.0431
31 | ATCTTATC | -0.0052
32 | AATCGTTC | 0.0614
33 | ATCTGAAG | -0.159
34 | AGTTGATG | 0.111
35 | CCTGGGTC | -0.144
36 | AAGTACAG | 0.0535
37 | CGCAGCAA | -0.155
38 | AAATTGCT | 0.0514
39 | GACGCAGA | 0.0316
40 | GGAAGGAC | 0.283
41 | GAGTTAAA | -0.0264
42 | GAGGGCGC | -0.212
43 | CATAGATG | -0.0856
44 | GGAGAGCA | -0.149
45 | CAGTAATA | 0.231
46 | CGAGCGGA | 0.0354
47 | CAATGCAC | -0.0497
48 | GGGACTAC | -0.163
49 | CTTGGTAC | 0.141
50 | AATATGCC | -0.141

Row | Sequence | PBM E-score
51 | CTGATTAA | 0.108
52 | CTTTTCAC | 0.124
53 | AGAGGCTC | -0.262
54 | CATTAATG | 0.133
55 | ACGGGCAG | -0.0886
56 | CCACAGTA | -0.0299
57 | GAGATTAA | 0.0845
58 | ATTTGTTA | 0.087
59 | ATCTTCAT | -0.0449
60 | CTTGTTTC | 0.0482
61 | GATGAACA | 0.104
62 | ACCCTCTA | -0.172
63 | AACGACAC | 0.139
64 | ATCCGGAA | 0.215
65 | ATAGTCCC | -0.175
66 | AACTGCGT | -0.0268
67 | ACATGGAT | 0.162
68 | CATCTTTA | -0.0415
69 | AAAATTAT | 0.194
70 | GCACTAGA | -0.149
71 | AACGATAG | -0.0701
72 | ATACGTTA | -0.0551
73 | ATCAGAGC | 0.0129
74 | CTAGCCCC | -0.22
75 | CCTCGTGC | -0.148

Row | Sequence | PBM E-score
76 | CAAGCGAC | 0.018
77 | ACTCATAG | -0.0128
78 | GCTTAGCA | -0.148
79 | CCTCGGAA | 0.261
80 | CTCAATAA | -0.0223
81 | TCAACACA | 0.0421
82 | AGTCCAAT | 0.0396
83 | GCGCGGCA | -0.0194
84 | TACCGTAA | 0.0902
85 | AAAGGGTC | -0.0303
86 | AGGGCACG | -0.245
87 | GCTATCGA | -0.0543
88 | CTCCTCAC | -0.275
89 | GTAGTCCA | -0.057
90 | CATTCATA | 0.219
91 | ACCCTAAG | 0.0961
92 | CTAGGGCA | -0.169
93 | AGTCTCGC | 0.118
94 | AAAGCCTA | -0.127
95 | TCTCTTCA | 0.071
96 | TAGGTGAA | 0.0103
97 | CTCCCCAG | -0.197
98 | ATGTGTTA | 0.157
99 | GCGACCAA | 0.144
100 | CGCGTAAA | 0.108

Row | Sequence | PBM E-score
101 | AACGGCAA | 0.036
102 | ATGCATCC | -0.0718
103 | GAATCCTA | 0.115
104 | CCCGGTAC | -0.1
105 | CCTGCACA | -0.243
106 | ATGCATAA | -0.0709
107 | CTTGGTGC | -0.0641
108 | CAAACATG | 0.0463
109 | ACCTTGGC | -0.161
110 | AGCCAAAA | 0.0448
111 | ACGTCGTC | -0.0679
112 | CACAATAC | -0.0413
113 | TGCGTCCA | -0.0747
114 | AGTTCGTA | 0.233
115 | CTTGGTTC | 0.129
116 | CTTCCGCA | -0.018
117 | CTATGGAA | 0.0795
118 | ACATATCA | 0.319
119 | CTGGAAAG | -0.0435
120 | CGAGTGGC | -0.181
121 | AAGCCGGG | -0.12
122 | TCCCTACA | -0.0166
123 | AAAGGGGC | -0.121
124 | GAATACCA | -0.103
125 | GTAGGAAC | 0.0233

Row | Sequence | PBM E-score
126 | CGTTGTGA | -0.0853
127 | CCCAAGTC | -0.0805
128 | CACAGAAA | 0.0606
129 | CGGCATAA | 0.0825
130 | GACTATGA | -0.0391
131 | CCTCTCAC | -0.23
132 | TTAACCAA | 0.109
133 | GAAACGCA | -0.0736
134 | CTCAGGGC | -0.176
135 | CTGCCTCC | -0.303
136 | CAATGCCG | 0.00213
137 | GATTAGCC | 0.0324
138 | AAATACGG | 0.0232
139 | TATTCTCA | 0.0146
140 | AATTTGCC | 0.0969
141 | CTTCGACC | 0.0099
142 | ATACCAAT | 0.0642
143 | TCTTCGAA | -0.0952
144 | CTAAGAAC | 0.0633
145 | CACATGAA | 0.0613
146 | ATAAGAAC | 0.222
147 | CAGCACGG | 0.0193
148 | ACGAGTAG | -0.0655
149 | AACTTATA | 0.166
150 | ATCAGCGG | -0.0761

Row | Sequence | PBM E-score
151 | AGGCTCTC | -0.171
152 | CCCTAGTC | -0.187
153 | GAAGGCTC | -0.291
154 | CTGACGCA | -0.174
155 | CCACCGTA | -0.0261
156 | CTGTGCAA | -0.136
157 | CCGTGACC | -0.101
158 | GCAGTGAA | 0.0767
159 | AACGGTGT | -0.00302
160 | CACACATA | 0.0356
161 | CAGTACTC | 0.0207
162 | TACGTCAA | -0.253
163 | CCTGAGCG | -0.181
164 | AACTAATG | 0.123
165 | ACCATTAA | 0.0863
166 | ATTCCTTA | 0.0299
167 | AACCCAGA | -0.00144
168 | GAACTTAA | 0.104
169 | TTAACGAA | 0.0868
170 | AGGCACGC | -0.159
171 | ATCATTGA | 0.0367
172 | CTTCCGCC | -0.228
